# Test results reported in PMC6919601, “Identification of Plasmodium dipeptidyl aminopeptidase allosteric inhibitors by high throughput screening” (PLoS ONE, 2019).
# The campaign covered roughly 110,000 compounds. About 230 (0.21%) showed an effect of 50% or more. The list shows a part of the results.
# Biological target: DPAP1 (Plasmodium falciparum, UniProt Q8IIJ9)
# Assay: primary screen, percent inhibition; read by cleavage of a fluorogenic dipeptide substrate; higher = more effect of the substance
# Parameters: species or system P. falciparum D10 trophozoite lysates; single well
# 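Further: 30 min substrate incubation versus DMSO and 10 µM JCP410 controls.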
# Sequence of DPAP1 (Q8IIJ9 whole entry, looked up): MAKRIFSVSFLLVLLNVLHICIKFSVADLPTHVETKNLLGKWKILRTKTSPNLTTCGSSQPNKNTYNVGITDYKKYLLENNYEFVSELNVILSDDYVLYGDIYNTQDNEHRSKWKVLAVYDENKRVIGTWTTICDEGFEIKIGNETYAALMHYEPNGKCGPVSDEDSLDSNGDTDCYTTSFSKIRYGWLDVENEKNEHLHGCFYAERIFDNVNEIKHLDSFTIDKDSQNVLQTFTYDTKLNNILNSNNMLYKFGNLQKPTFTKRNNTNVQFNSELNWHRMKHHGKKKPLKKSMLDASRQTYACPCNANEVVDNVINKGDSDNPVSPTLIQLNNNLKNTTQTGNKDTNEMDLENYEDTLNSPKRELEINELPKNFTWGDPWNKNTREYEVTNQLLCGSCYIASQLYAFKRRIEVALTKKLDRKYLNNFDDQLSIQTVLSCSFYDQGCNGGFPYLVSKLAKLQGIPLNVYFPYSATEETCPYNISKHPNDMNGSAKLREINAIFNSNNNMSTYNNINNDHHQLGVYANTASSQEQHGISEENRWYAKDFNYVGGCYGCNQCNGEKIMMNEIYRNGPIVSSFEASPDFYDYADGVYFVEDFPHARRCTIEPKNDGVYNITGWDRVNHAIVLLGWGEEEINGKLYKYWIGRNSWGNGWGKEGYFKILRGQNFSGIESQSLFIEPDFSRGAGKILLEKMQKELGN
row,Compound,% Inhibition @ 10 uM
1,COc1cccc(NC(=O)C2CC(C)=C(C)CC2C(=O)O)c1 (centres unmarked),-1.65%
2,C1CCN(c2nc(N3CCCCC3)nc(N3CCCCC3)n2)CC1,-1.76%
3,CCCN1CCC(NCc2cccc(Br)c2)CC1,-0.603%
4,Cc1ccc(C2=N/C(=C\c3ccccc3Cl)C(=O)O2)cc1,-2.05%
5,CCOc1ccc(N2C(=O)NC(=O)/C(=C\c3ccc(N(C)C)cc3)C2=O)cc1,-0.0953%
6,COc1ccccc1C(=O)Nc1nc(-c2ccc(S(=O)(=O)N3CCCC3)cc2)cs1,0.907%
7,O=C(NCc1ccccc1F)c1ccccc1-c1ccccc1,0.0719%
8,CC1CCCN(C(=O)COc2ccc(F)cc2)C1 (centres unmarked),-5.6%
9,O=C(c1ccc(Cl)cc1)N(Cc1ccccc1F)C1CCS(=O)(=O)C1 (centres unmarked),-1.35%
10,CCc1c(C)sc(NC(=O)c2ccc(Cl)cc2Cl)c1C(N)=O,-1.04%
11,CN(c1ccc(C(=O)N2CCCCCC2)cc1)S(C)(=O)=O,-0.95%
12,O=C(Cn1nc(Cc2ccncc2)c2ccccc2c1=O)NCCCN(Cc1ccco1)C1CCCC1,4.41%
13,COc1ccc(CN2CCN(c3ccccc3F)CC2)cc1,3%
14,Cc1c(Cl)cccc1-n1nc(C)c2c(C)cc(=O)n(CC(=O)NC(C)c3ccccc3)c21 (centres unmarked),3.16%
15,CN1C(=O)C(=Cc2ccc(OCCOc3ccc(C(C)(C)C)cc3)cc2)C(=O)N(C)C1=O,3.25%
16,CCOC(=O)c1c(NC(=O)N2CC=C(c3c[nH]c4ccccc34)CC2)sc2c1CCCC2,1.81%
17,Cc1cccc(-c2nc(CSCC(=O)NC3CCC(C)CC3)c(C)o2)c1 (centres unmarked),2.37%
18,CCN(CC)C(=O)Cn1c2ccccc2c2nc3n(c(=O)c21)CCS3,1.32%
19,COc1cc(CN2CCN(Cc3ccccc3Br)CC2)cc(OC)c1O,-5.93%
20,CC1(C)Cc2nc3sc4c(NC5CCCCC5)ncnc4c3cc2CO1,-2.65%
21,CC1(C)CC2CC(C)(CN2C(=O)C23CCC(C)(C(=O)O2)C3(C)C)C1 (centres unmarked),-3.96%
22,CCN1CCN(CC(O)COc2c(C)cc(C)cc2C)CC1 (centres unmarked),-4.39%
23,CC1NCCn2cccc21 (centres unmarked),-6.52%
24,N=C1/C(=C\c2ccc(SCc3ccco3)o2)C(=O)N=C2SC(C(F)(F)F)=NN12,-1.28%
25,Cc1n[nH]c(C)c1CCCCOc1ccc(Cl)cc1,-6.44%
26,CCOc1ccccc1C(=O)N(Cc1ccc(OC)cc1)Cc1ccco1,3.88%

row,Compound,% Inhibition @ 10 uM
1,O=C(O)C(Cc1ccccc1)/N=C/C=C(\O)C(F)(F)F (centres unmarked),5.98%
2,Cc1ccc(C(C)C)c(Oc2nc3ccccn3c(=O)c2/C=C(\C#N)S(=O)(=O)c2ccccc2)c1,-5.1%
3,COC(=O)c1ccc(-n2nnnc2SCc2ccccc2OC)cc1,-4.19%
4,COc1ccc(-c2noc(CN(C(=O)c3cccc(Br)c3)C(C)C)n2)cc1,2.5%
5,CN1CCN(c2nc(NCC3CCCO3)c3ccccc3n2)CC1 (centres unmarked),-5.29%
6,O=C(NC1CCCCCCC1)c1ccc(Br)o1,-0.294%
7,COc1cccc2sc(N(CCCN(C)C)C(=O)c3cccc(C)c3)nc12,-0.285%
8,CCCOc1ccccc1/C=C1\SC(N2CCN(C(C)=O)CC2)=NC1=O,-3.06%
9,COc1ccc(CNC(=O)CN(c2cc(C)ccc2OC)S(C)(=O)=O)cc1,-2.82%
10,CN(c1ccc(C(=O)Nc2ccccc2-c2ccccc2)cc1)S(C)(=O)=O,3.38%
11,Cc1ccc(-c2cc(C(=O)N3CCN(c4ncccn4)CC3)c3ccccc3n2)o1,3.48%
12,O=S(=O)(O)c1ccc2nc(O)c(O)nc2c1,-0.458%
13,CCC(O)C#CC(C)(O)CCC=C(C)C (centres unmarked),3.25%
14,O=C(NCCO)/C(=C/c1ccco1)NC(=O)c1cccc(Br)c1,-4.72%
15,COc1ccc(NCC(O)Cn2cnc3c2c(=O)n(C)c(=O)n3C)cc1 (centres unmarked),4.49%
16,O=C(CNS(=O)(=O)c1ccc(Br)cc1)NCc1ccncc1,6.71%
17,CCCN1C(=O)c2oc3cc(C)cc(C)c3c(=O)c2C1c1cccc(O)c1 (centres unmarked),0.00706%
18,c1ccc(OCCN2CCOCC2)cc1,-4.87%
19,COc1ccc(CNC(=O)Cn2nc(C(F)(F)F)c3c2CCC3)cc1,4.08%
20,COC(=O)c1cnn2c(O)c3c(nc12)C(=O)N(Cc1ccccc1)C3,-0.256%
21,Cc1ccccc1OCC(=O)Nc1ccc(Cl)c(Cl)c1,-0.872%
22,CCOCC(=O)NC1CCCc2ccccc21 (centres unmarked),1.17%
23,Cc1nnc(SCC(=O)NC2CCCC2)c2nn(-c3ccccc3)c(C)c12,4.88%
24,CCOc1ccc(NC(=O)CSC(=O)c2ccccc2)cc1,-1.06%
25,O=C(NCCN1CCCC1)c1ccc(Cl)cc1,0.5%
26,O=C(CSc1ccccc1)Nc1cccc2c1C(=O)N(c1ccccc1)C2=O,2.37%

row,Compound,% Inhibition @ 10 uM
1,CCOC(=O)c1c(C)[nH]c2cc(Br)c(O)cc12,-2.51%
2,O=C(NC1CCCCCCC1)C(Cc1ccccc1)NS(=O)(=O)c1cccc2cccnc12 (centres unmarked),2.6%
3,C#CCn1cc(/C=C2\SC(=O)N(C)C2=O)c2ccccc21,-3.06%
4,CCc1ccc(OCC(=O)Nc2ccc(N3CCN(C)CC3)cc2)cc1,-7.15%
5,CCCCNC(=O)c1cc2nc(-c3ccccc3)cc(C)n2n1,-5.04%
6,O=C1CC(c2ccccc2)CC(=O)C1=CNCC1CCCO1 (centres unmarked),-6.59%
7,CCN(CC)CCCNC(=O)Nc1cnc2ccccn2c1=O,-3.08%
8,COc1ccc(/C=C/C2=NN(c3ccccc3)C(c3ccc(OC)cc3)C2)cc1 (centres unmarked),0.968%
9,Cc1cccc(C)c1NC(=O)c1cc(F)c(Cl)nc1Cl,6.69%
10,Cc1ccccc1CN1CCN(C/C=C/c2ccccc2)CC1,-5.57%
11,CCN1CCN(Cc2cccc(F)c2)CC1,-0.192%
12,O=C(c1ccc(Cl)cc1Cl)N1CCN(c2ccc(Cl)cc2)CC1,5.12%
13,Cc1ccc(SC(C)C(=O)Nc2ccccc2C(=O)NC(C)C)cc1 (centres unmarked),-5.13%
14,CS(=O)(=O)N(CC(=O)NCc1ccc(Cl)cc1)c1cccc(F)c1,-0.48%
15,O=C(/C=C/c1ccccc1)Nc1c(-c2ccccc2)nc2ccccn12,-3.21%
16,Cc1cccc(C)c1-n1ncc(C(=O)NC2CCCC2)c1C1CCNCC1,-9.36%
17,CC(C)CC(=O)Nc1ccc(N2CCN(S(C)(=O)=O)CC2)cc1,-6.02%
18,C/C(=N\N=C(/C)c1nnn(-c2nonc2N)c1C)c1ccc(O)cc1,1.76%
19,CCN(CC)CCNC(=O)c1c(C)oc2c1C(=O)c1ccccc1C2=O,0.0289%
20,NC(=O)NC(=O)c1nc2ccccc2nc1O,0.634%
21,CN(C)C(=O)c1ccccc1-c1ccccc1C(=O)O,-9.55%
22,COc1ccc(NC(=O)c2cc(C)c(C)o2)cc1,4.98%
23,COc1ccc(CCNC(=O)c2cc3cccc4c3n2CCS4)cc1OC,-1.83%
24,Cc1[nH]c2ccccc2c1/C=C1\SC(=S)NC1=O,2.4%
25,COc1ccccc1-n1c(C)cc(C(=O)O)c1C,5.3%
26,CCSc1ncc(Cl)c(C(=O)NCc2ccc(OC)cc2)n1,2.19%

row,Compound,% Inhibition @ 10 uM
1,CC1=C(C(=O)Nc2ccccc2)C(c2cccc3ccccc23)NC(S)=N1 (centres unmarked),-3.44%
2,Cc1ccc2c(c1)c1c3n2CC(=O)N(Cc2ccccc2)C3CCC1 (centres unmarked),-4.96%
3,CC(C)NC(=O)C(=O)NCc1ccccn1,-0.233%
4,Cc1cc(-c2ccc(S(=O)(=O)N3CCCCCC3)s2)on1,-5.12%
5,CC1=C(C(=O)Nc2ccc(C)cn2)C(c2ccc3c(c2)OCO3)C2=C(O)CCCC2=N1 (centres unmarked),-5.79%
6,CCOc1ccccc1NC(=O)C1=C(C)NC(=O)NC1c1ccc(OC)cc1 (centres unmarked),-7.46%
7,CC(C)CN1C(=O)NC(NC(=O)c2cccnc2)(C(F)(F)F)C1=O (centres unmarked),-1.72%
8,Cc1cc(NS(=O)(=O)c2ccc(NS(=O)(=O)c3ccc(Br)cc3)cc2)nc(C)n1,-0.884%
9,CCC(O)c1ccc(OCc2ccc(C(=O)OC)cc2)c(OC)c1 (centres unmarked),0.146%
10,O=C(CN(c1ccc(Br)cc1)S(=O)(=O)c1ccccc1)N1CCCCCC1,9.02%
11,COc1ccc2c3ncn(CCCN4CCCCC4C)c(O)c-3nc2c1 (centres unmarked),-0.0235%
12,O=[N+]([O-])c1cccc(C2=NN(c3nc(-c4ccc(Cl)cc4)cs3)C(c3ccc(F)cc3)C2)c1 (centres unmarked),2.54%
13,O=C(/C=C/c1ccccc1)Nc1cccc(C(F)(F)F)c1,6.09%
14,CC(C)C[C@H](NC(=O)c1ccc(NC(=O)OCCCc2ccccn2)cc1)C(=O)NCC#N,3.66%
15,Cc1noc(NS(=O)(=O)c2ccc(NC(=O)Nc3ccc(Cl)cc3)cc2)c1C,6.82%
16,O=C(CCC(=O)n1ncc2ccc(Cl)cc21)NCCc1ccc(Cl)cc1,8.34%
17,Cc1ccc(/C=C(\NC(=O)c2ccc(C)cc2)C(=O)N2CC3CC(C2)c2cccc(=O)n2C3)cc1 (centres unmarked),0.111%
18,FC(F)(F)c1cccc(N2CCNCC2)c1,3.16%
19,COc1ccc(-c2ccc(C3Nc4ccc5ccccc5c4C4=C3C(=O)CC(C)(C)C4)o2)cc1Cl (centres unmarked),1.29%
20,c1ccc(Cn2c3c(c4ccccc42)CCc2nonc2-3)cc1,3.04%
21,Cc1ccc(-c2nnc3c4cnn(Cc5ccccc5)c4ncn23)cc1,-3.96%
22,CCCN(CCC)C(=O)Cn1c(=O)n(CC(=O)NCc2ccco2)c(=O)c2sccc21,-1.21%
23,Cc1ccc2c(c1)cc1c(=O)n(CC(=O)N3CCCCCC3)nc(C)n12,3.29%
